# Assay results published in PubChem BioAssay AID995 (National Center for Advancing Translational Sciences (NCATS), 2007).
# In all, about 72,000 compounds went through this assay and about 710 (0.99%) were called active. The shares of active, inactive and inconclusive entries below differ from those in the screen. Calls come from the whole dose curve; as a rule, active = well fitted inhibition curve with a large enough effect; inconclusive = small, poorly fitted or top-dose-only effect; inactive = no such curve, though single readings can be large or run the other way. No potency is given beside an inconclusive call; the fits are too rough.
# Test: qHTS Assay for Inhibitors of the ERK Signaling Pathway using a Homogeneous Screening Assay; note: nearly all actives have a fitted effect of over 55% in size
# Settings: HEK293-V1b, vasopressin-stimulated pERK AlphaScreen; activity, negative = inhibition: at 57.5 µM (top of the series) unless noted
# Procedure, shortened: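 HEK293 cells stably expressing V1b receptor, seeded overnight in 1% FBS, were treated with compounds for 30 min at 37C, then stimulated 5 min with 25 nM vasopressin; phospho-ERK read by AlphaScreen SureFire after lysis.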
# % is set by controls: 0 for no effect and ±100 for the full control effect; potency is the fitted concentration of half-maximal effect; tags give direction and shape of the fitted curve.
SMILES,"activity, negative = inhibition",Potency
CCc1ccc(C(=O)CSC2=C(C#N)C(c3ccco3)C(C(C)=O)=C(C)N2)cc1 (stereo not given),inactive: -4.8%,
O=[N+]([O-])c1ccc(-c2nc(-c3ccc(F)cc3)c(-c3ccncc3)[nH]2)cc1,,active: 20 µM
Cc1nc2ccccc2c2oc(C(=O)NCc3ccccn3)cc12,,"inconclusive [inhibitor, single point]"
Cc1cccc(OCC(=O)N2CCC(c3ccccc3)C2)c1 (stereo not given),inconclusive: -33.8% [inhibitor],
NCCCCCCN,inactive: 11.3%,
COc1cccc(CNC2CCCC2)c1,inactive: -2.15%,
COc1cc2nc(N(C)CCCNC(=O)[C@@H]3CCCO3)nc(N)c2cc1OC,inactive: 3.05% [at 25.7 µM],
O=C(Nc1ccc(S(=O)(=O)N2CCCCCC2)cc1)c1ccco1,,"inconclusive [inhibitor, partial curve]"
CCCSc1nc2c(c(=O)[nH]c(=O)n2C)n1CCc1ccccc1,,"inconclusive [inhibitor, full curve]"
O=C(COc1ccc(Cl)cc1Cl)NCc1ccncc1,,"inconclusive [inhibitor, partial curve, poor fit]"
Cc1ccc(N(CC(=O)NCC2CCCO2)S(C)(=O)=O)cc1Cl (stereo not given),,"inconclusive [inhibitor, partial curve]"
CC1(C)Cc2ccccc2-c2nnc(SCC(=O)Nc3ccc4c(c3)OCO4)n21,,"inconclusive [inhibitor, single point]"
O=C(O)C1Nc2c(O)cccc2C2C=CCC12 (stereo not given),,"inconclusive [inhibitor, single point]"
COc1ccc(OC)c(NC(=O)C2CCC(CNc3c(N4CCC(C)CC4)c(=O)c3=O)CC2)c1 (stereo not given),,"inconclusive [inhibitor, partial curve]"
CCC(OC(=O)CCc1nc2ccccc2[nH]c1=O)C(=O)c1ccccc1 (stereo not given),,"inconclusive [inhibitor, single point]"
COc1cccc(Cn2c(=O)c(-c3cc(F)cc(F)c3)nc3cncnc32)c1,,"inconclusive [inhibitor, partial curve]"
COc1ccc(OCC(=O)Nc2ccc3c(c2)nc2n3CCSC2)cc1,,"inconclusive [inhibitor, partial curve]"
CCC(=O)NCCC(c1ccco1)c1ccccc1OC (stereo not given),inactive: -28.2%,
COc1ccc(C2CC(c3ccccc3C)n3nc(N)nc3N2)cc1 (stereo not given),,"inconclusive [inhibitor, partial curve, poor fit]"
O=C(CN1C2=NCCN2c2ccccc21)C12CC3CC(CC(C3)C1)C2,inactive: -14.8%,
Cn1c(=O)c2c(nc(NCc3ccco3)n2C)n(C)c1=O,inactive: -8.25%,
O=C1C2=CC[C@H]3C(=O)N(Cc4ccccc4)C(=O)[C@@H]3[C@@H]2[C@H](O)[C@@H]2O[C@H]12,inactive: -11% [at 11.5 µM],
Cn1c(NCCCN2CCOCC2)nc2c1c(=O)n(Cc1ccc(Cl)cc1Cl)c(=O)n2C,,"inconclusive [inhibitor, single point]"
CN1CCN(c2nc(N3CCN(c4ccccc4)CC3)ncc2F)CC1,,"inconclusive [inhibitor, partial curve]"

SMILES,"activity, negative = inhibition",Potency
COc1ccc(C(=O)NCc2cn3c(C)csc3n2)cc1OC,,"inconclusive [inhibitor, partial curve]"
COc1ccc(OC)c2c(=S)c3ccccc3[nH]c12,,"inconclusive [inhibitor, full curve]"
COC(=O)c1ccc(C(NC(=O)OCc2ccccc2)/C(I)=C/[C@@H](C)C(=O)NCc2ccc(OC)c(O)c2)cc1 (stereo not given in full),inactive: -16%,
CCn1c(SCc2nc(CC(=O)Nc3ccccc3OC)no2)nnc1-c1cccs1,inactive: 9.56%,
Cc1ccc2c(c1)N(CC(=O)N1CCN(c3nc4ccccc4s3)CC1)C(=O)C(C)O2 (stereo not given),,"inconclusive [inhibitor, single point]"
O=C(Nc1ccccc1)c1cc([N+](=O)[O-])ccc1Cl,,"inconclusive [inhibitor, single point]"
O=C(O)[C@H](Cc1c[nH]c2ccccc12)N1C(=O)c2ccccc2C1=O,inactive: 2.87% [at 11.5 µM],
N#Cc1c(NC(=O)CSc2nc(N)cc(=O)[nH]2)sc2c1CCCCCC2,,"inconclusive [inhibitor, partial curve]"
O=C(N/N=C\c1cccc(O)c1)c1ccncc1,inactive: -18.5% [at 11.5 µM],
CCOC(=O)c1c(C)n(CC(O)c2ccccc2)c2ccc(O)cc12 (stereo not given),,"inconclusive [inhibitor, partial curve, poor fit]"
O=C(O)c1ccc(N2CCCCCC2)c(N2C(=O)c3ccccc3C2=O)c1,inactive: 8.77%,
CN(C)c1ccc(NC(=O)Cn2cc3c(n2)CCCC3)cc1,,"inconclusive [inhibitor, partial curve]"
COc1cccc(NC(=O)CSc2nc3n[nH]c(C)c3c(=N)n2-c2cccc(OC)c2)c1,inactive: 7.19%,
CC1=C(CC(=O)O)c2cc(F)ccc2/C1=C\c1ccc(S(C)=O)cc1 (stereo not given),,"inconclusive [inhibitor, full curve, poor fit]"
Cc1cccc(NC(=O)CCN2CCOCC2)c1,inconclusive: -31.7% [inhibitor],
CCCC[C@@H]1CN2[C@H](c3ccc(Br)cc3)[C@H](C)CC[C@H]2C(=O)O1,inactive: 11.8% [at 11.5 µM],
N=C(N)CCNC(=O)[C@@H]1CCC(N)=N1,inactive: -3.45% [at 11.5 µM],
OC(COCc1ccc(Cl)cc1)CN1CCN(CC(O)COCc2ccc(Cl)cc2)CC1 (stereo not given),,"inconclusive [inhibitor, single point]"
CN1CCN(C(=O)c2ccc3c(=O)n(Cc4ccc(Cl)cc4)c(=S)[nH]c3c2)CC1,,"inconclusive [inhibitor, partial curve]"
Cc1nc2ccccc2c2oc(C(=O)NCCN3CCCCC3C)cc12 (stereo not given),,"inconclusive [inhibitor, single point]"
N#CC(c1nc2ccccc2nc1N1CCCC1)S(=O)(=O)c1cccs1 (stereo not given),,"inconclusive [inhibitor, single point]"
C=CCn1c(N)c(C(=O)NCc2ccco2)sc1=S,,"inconclusive [inhibitor, partial curve]"
CCCOc1nc(N)c(C#N)c(-c2ccccc2F)c1C#N,,"inconclusive [inhibitor, full curve, poor fit]"
CC1=Nn2c(nnc2-c2ccccn2)SC1,,"inconclusive [inhibitor, partial curve]"

SMILES,"activity, negative = inhibition",Potency
CCC(c1nnnn1Cc1cccs1)N1CCN(c2nc3ccccc3s2)CC1 (stereo not given),,"inconclusive [inhibitor, single point]"
O=c1c(-c2cccs2)nc2cncnc2n1-c1ccccc1,inactive: -28.8%,
O=C(c1ccc(COc2ccc3c(c2)CCC3)o1)N1CCN(c2ccccc2)CC1,,"inconclusive [inhibitor, single point]"
COc1ccc(NC(=O)c2ccccc2NS(C)(=O)=O)cc1OC,,"inconclusive [inhibitor, partial curve, poor fit]"
O=c1c(-c2ccc(Cl)cc2)nc2cnc(N3CCNCC3)nc2n1-c1ccccc1,,"inconclusive [inhibitor, single point]"
Cc1cc(C)nc(SCc2nnc(SCC(=O)OC3CCCCC3)o2)n1,,"inconclusive [inhibitor, partial curve]"
CCCC(=O)NCCc1c2n(c3ccc(OC)cc13)Cc1ccccc1-2,,"inconclusive [inhibitor, partial curve]"
COc1ccc(N2CCN(CCCNS(=O)(=O)c3ccc4c(c3)oc(=O)n4C)CC2)cc1,,"inconclusive [inhibitor, partial curve]"
c1cncc(-c2nc(NCCN3CCOCC3)c3ccccc3n2)c1,inactive: -24.8%,
O=C(c1cccs1)c1no[n+]([O-])c1C(=O)c1cccs1,,active: 5.01 µM
CC(C)CCNC(=O)C(c1ccco1)N(C(=O)Cn1nnc2ccccc21)c1ccc2c(c1)OCO2 (stereo not given),inactive: 34.1%,
c1cc2[nH]snc2c2nc(C3CC3)nc12,,"inconclusive [inhibitor, single point]"
O=S(=O)(C/C(=C/CO)S(=O)(=O)c1ccccc1)c1ccccc1,,"inconclusive [inhibitor, single point]"
CN1CCN(c2ccccc2NC(=O)c2ccc(-c3ccccc3)cc2)CC1,,"inconclusive [inhibitor, single point]"
Oc1ccc(-c2nc3ccccn3c2NCc2ccc3c(c2)OCO3)cc1,,"inconclusive [inhibitor, single point]"
O=C(C1=C(O)C(=O)N(Cc2ccco2)C1c1cccnc1)c1cc2ccccc2o1 (stereo not given),,"inconclusive [inhibitor, partial curve]"
COc1ccccc1-c1cc(Nc2ccn[nH]2)ncn1,,"inconclusive [inhibitor, partial curve]"
CC(C)OCCCNc1ncnc2c1[nH]c1ccc(F)cc12,,"inconclusive [inhibitor, partial curve]"
NC[C@H](O)C1CCCCCCC1,inactive: 7.76%,
Cc1ncc(CSC(=N)N)n1Cc1ccccc1,inactive: -23% [at 11.5 µM],
CCOC(=O)Cn1nnnc1CN(Cc1ccc(OC)cc1)Cc1cc2cc(C)ccc2[nH]c1=O,,"inconclusive [inhibitor, partial curve, poor fit]"
CC(C)OC(=O)CSc1nnc(-c2ccc(Cl)cc2Cl)o1,inactive: 22.8%,
